Our source for the self-cleavage values is the RNAGym collection of RNA variant scans (doi:10.7554/elife.90254).

Read counts are not given, so values of variants with three or more changes are uncertain.

To fix the notation:
B1: LINE1-mini (parent)
chain: GGCAGAGCUCAACACAGCGUGGCAAAGUGGCUGUGGCUAGACUGCC

Variants of B1 are the subject of the data set. Nature of the data set: self-cleavage, relative activity (ratio to wild type); higher = more cleavage; in vitro, sequencing; the parent is a self-cleaving ribozyme.
For C10U G21A G22C G44C, the self-cleavage is 0.09.

In the case of A11C C45A C46U, the self-cleavage was 0.02.

In the case of C10U C13A G27A A39U, the self-cleavage was 0.04.

As for A11C G29U U32A U34C C45A, the self-cleavage stood at 0.01.

Consider C10U A12U U20A A41U G44C, for which the self-cleavage amounted to 0.02.

For the variant A11C G27C C46U, the self-cleavage is 0.09.

Consider C10G U20G C45U, for which the self-cleavage came to 0.06.

For A11C G22C C23A A41G, the self-cleavage came to 0.05.

Regarding A11C A14G A41U, the self-cleavage came to 0.05.

Take A11C U20C G27U G33A A39G: the self-cleavage turned out to be 0.01.

Take A11G A26G C31U: the self-cleavage amounted to 0.02.

C10G G36A U38G: the self-cleavage amounted to 0.

For the variant C10U C18U G44U, the self-cleavage was 0.15.

A11C G33C G35C: the self-cleavage was found to be 0.03.

Consider A11C G17C U34A, for which the self-cleavage worked out at 0.03.

With C10U C13G C37U, the self-cleavage came out at 0.09.

C10U G19C C23A: the self-cleavage was determined as 0.16.

As for C10U C23A A39U, the self-cleavage was 0.17.

Turning to C10U A14G A24C G29A C37G, the self-cleavage worked out at 0.03.

On to A11C C31G G35U, for which the self-cleavage stood at 0.02.

Consider C10U U34C G40A C42U U43A, for which the self-cleavage worked out at 0.04.

Take C10U G19C U43A: the self-cleavage amounted to 0.03.

Turning to A11C G17C G30C, the self-cleavage is 0.02.

Consider C10G U28A G40U, for which the self-cleavage is 0.

For the variant A11C A16G A24C G44U C46U, the self-cleavage amounted to 0.01.

On to C10U C13G U20G, for which the self-cleavage came to 0.05.

On to A11C A14C G17U A25G, for which the self-cleavage amounted to 0.

With A11C A26C U38G C45G, the self-cleavage stood at 0.

With A11C C15A A24C A25G U38C, the self-cleavage amounted to 0.02.

Turning to A11C G19C G36C G40A A41G, the self-cleavage came to 0.02.

On to C10U A16G C31U, for which the self-cleavage came out at 0.07.

Turning to C10U G19A C23A C31A C45G, the self-cleavage was 0.4.

As for C10U A12G C13U A14G U20A U32A C37U, the self-cleavage is 0.

For the variant C10U U38A G40U, the self-cleavage was 0.03.

A11C A12G C23U G33A: the self-cleavage came to 0.02.

With A11G A39U C46A, the self-cleavage amounted to 0.

As for C10U A26C G29U G36C C46A, the self-cleavage came to 0.01.

Take A11G C31G G33C: the self-cleavage worked out at 0.01.

As for A11G C23G A41C, the self-cleavage was found to be 0.02.

A11G C23G A41G: the self-cleavage was determined as 0.

Consider A11C A16C U28G C45A, for which the self-cleavage is 0.

As for C10U G22U C45A, the self-cleavage came to 0.05.

Regarding C10U A16G G30A C31A, the self-cleavage came out at 0.05.

Take A11C U34A C45U: the self-cleavage came out at 0.01.

Take A11C G21U C23A A39U: the self-cleavage was found to be 0.03.

On to C10U G21A C23U G35U, for which the self-cleavage was 0.04.

On to C10G U34A C42G, for which the self-cleavage turned out to be 0.01.

On to A11G C23A C37U, for which the self-cleavage worked out at 0.02.

With C10U U20G C23A G33C, the self-cleavage was 0.02.

Take C10U C18A C23U: the self-cleavage is 0.38.

In the case of C10U U20C C45U, the self-cleavage is 0.09.

Turning to A11G C15A C18A G22U G40U, the self-cleavage came out at 0.01.

Regarding A11C A25U A26G, the self-cleavage stood at 0.06.

As for C10G U20C C31A G40C, the self-cleavage worked out at 0.

As for C10U A12U U20C G21U A39C, the self-cleavage was 0.03.

For C10U G17U C18U C37U, the self-cleavage stood at 0.03.

Turning to C10U A12U C13U G21U, the self-cleavage amounted to 0.07.

Take C10U U20A C37U: the self-cleavage was 0.02.

Turning to C10U A12G A24U G30A U34C, the self-cleavage came out at 0.01.

Regarding C10U G27C C37A C45A, the self-cleavage was found to be 0.01.

On to C10U C13A A26G G36A A41U, for which the self-cleavage stood at 0.02.

As to A11G A16U G22U U28G U43A, the self-cleavage was found to be 0.

In the case of A11C C13U A16C C31G, the self-cleavage came out at 0.02.

With A11C C23U A39C C42U, the self-cleavage worked out at 0.02.

Take C10U A11C A14G C18G G35U: the self-cleavage worked out at 0.

In the case of C10U C13U U38C U43C, the self-cleavage stood at 0.02.

Consider A11C U20G G35U A39U A41U, for which the self-cleavage turned out to be 0.

On to A11C G19A A25U, for which the self-cleavage worked out at 0.03.

In the case of C10G G30A G35A, the self-cleavage amounted to 0.02.

On to C10U G21U C23G A26G U28G G29A U38A, for which the self-cleavage amounted to 0.01.

A11G C23U U34C: the self-cleavage came out at 0.03.

On to C10U C13U A14G, for which the self-cleavage amounted to 0.04.

As for C10U A12G A25U, the self-cleavage came to 0.04.

As for C10G G30C G33A, the self-cleavage is 0.02.

For A11G A14G G21U C45U, the self-cleavage is 0.05.

Consider C10G U20A C31A A41U, for which the self-cleavage was determined as 0.

Turning to C10U C13G A14G G30A C37G, the self-cleavage came out at 0.03.

With A11C C13A U34A, the self-cleavage came out at 0.01.

With C10U C23A C45A, the self-cleavage came to 0.14.

A11C G19C G22C: the self-cleavage turned out to be 0.01.

Consider A11C G36U G44C, for which the self-cleavage was 0.02.

With C10U U20G C23A A24C, the self-cleavage is 0.34.

For C10U C13G G30U, the self-cleavage is 0.05.

Take C10U G27U U43G G44A C46U: the self-cleavage was found to be 0.01.

As to A11G C15U G29C U32C, the self-cleavage stood at 0.08.

For the variant A11G C18U C31G U32C, the self-cleavage is 0.04.

As for A11C A14C G17C C23A C46A, the self-cleavage stood at 0.02.

For A11G C13U C15A, the self-cleavage was 0.01.

For the variant A11G A24U G30U C31U U32G C42U, the self-cleavage was determined as 0.01.

In the case of C10U G19U G21A A41U, the self-cleavage came out at 0.05.

C10U G17U G30A G36C C46U: the self-cleavage worked out at 0.

Take C10U A26G G27U U43A C45U: the self-cleavage was determined as 0.08.

As for A11C A25C G33U, the self-cleavage was 0.02.

In the case of A11G C23G G44U C46G, the self-cleavage was found to be 0.

With C10U A14U C15U C37U, the self-cleavage was found to be 0.07.

As for A11C G35C C37G, the self-cleavage was 0.03.

Regarding A11C G21C C42U C46U, the self-cleavage amounted to 0.

For the variant A11G C23U A39G, the self-cleavage came to 0.01.

As to C10U G19U A26G G33U G36C, the self-cleavage was 0.01.

For the variant C10U A25C G29C U34C A39G, the self-cleavage is 0.02.

On to C10U G40U C42A C46G, for which the self-cleavage stood at 0.03.

For the variant C10G G40U C42G, the self-cleavage came to 0.04.

As for A11C U34C G36A C37A, the self-cleavage stood at 0.07.

With C10G G27U U34A U38C, the self-cleavage was determined as 0.01.

For the variant A11G C13G C18A G29U, the self-cleavage worked out at 0.01.

Turning to A11C C13G A25C G35U C42U, the self-cleavage was determined as 0.01.

Regarding A11C U32C C37A, the self-cleavage was 0.03.

On to C10U G33A G40C, for which the self-cleavage amounted to 0.04.

Regarding C10U A24U C45A, the self-cleavage was 0.06.

Regarding C10U A24G G30U G35C C37A A41G, the self-cleavage was determined as 0.01.

Consider C10U C15U G19A G22A C42G, for which the self-cleavage was 0.02.

In the case of C10U G19U G36A C46A, the self-cleavage was 0.

Regarding A11C C31A G33A U34G A39G U43A, the self-cleavage came to 0.01.

Regarding C10G G40U U43G, the self-cleavage amounted to 0.

Consider C10U A12C G19A U38A, for which the self-cleavage amounted to 0.01.

In the case of A11C G19C C37U, the self-cleavage was 0.01.

Turning to C10U C15A G19A, the self-cleavage came out at 0.06.

Regarding C10G G29U G33A, the self-cleavage was determined as 0.01.

A11G C18A G44C: the self-cleavage was determined as 0.02.

C10U C18A U28G G30U: the self-cleavage came to 0.16.

Consider C10U G21A C23G U34A G44C, for which the self-cleavage is 0.05.

For the variant C10U G36U U43C, the self-cleavage turned out to be 0.12.

C10G G36C A39C: the self-cleavage was determined as 0.

For A11C A24C U32A, the self-cleavage amounted to 0.01.

Turning to C10U U38A G44U C46G, the self-cleavage was found to be 0.02.

C10U G30A U43A: the self-cleavage stood at 0.02.

Turning to C10U A25U C45U, the self-cleavage amounted to 0.17.

For A11C G27C G36C G40A, the self-cleavage came to 0.02.

Turning to A11C G19A U28C G30A G33A, the self-cleavage is 0.02.

As for C10U A26C G36A, the self-cleavage was determined as 0.06.

Consider A11G C13U C45U, for which the self-cleavage was found to be 0.05.

C10U G27C U28C: the self-cleavage is 0.19.

As for C10G U34G C45A, the self-cleavage came out at 0.06.

Turning to A11G C13U C31A, the self-cleavage came out at 0.04.

Turning to C10U A39G G40C C46G, the self-cleavage is 0.05.

On to C10U G22C C45A, for which the self-cleavage was 0.47.

Turning to A11C C23U A39G C46G, the self-cleavage came out at 0.

With A11C G30U G33A, the self-cleavage worked out at 0.02.

Consider C10U A12U C13G C23U A25C, for which the self-cleavage was found to be 0.05.

For the variant C10G G29U A41G C45U, the self-cleavage came out at 0.04.

As for A11C A26G G40U, the self-cleavage is 0.

As for A11C G33C C45G, the self-cleavage was 0.

Consider A11G G17C G36C, for which the self-cleavage was 0.01.

A11G C15A C18A C23G G29U C42U U43A C45G: the self-cleavage stood at 0.01.

Consider A11C G21U A39U, for which the self-cleavage was found to be 0.02.

Consider C10U G17A G40A C42A, for which the self-cleavage came out at 0.03.

As to C10U G19C G44C, the self-cleavage came out at 0.15.

Turning to C10U U20A C31A, the self-cleavage turned out to be 0.01.

Turning to C10U U28C G29U U32G, the self-cleavage worked out at 0.06.

Regarding A11C U20A G21C G35A U43A, the self-cleavage came out at 0.

As to A11G G17A G21C U32A, the self-cleavage was determined as 0.

Regarding C10U A11G A24C A39U, the self-cleavage came out at 0.09.

For C10G G30A C45A, the self-cleavage is 0.01.

Turning to A11C A12G G21C U28A U38C A39U, the self-cleavage worked out at 0.

Regarding A11G C18A A24G U38G, the self-cleavage came out at 0.01.

Turning to A11G C18G G27A C37U, the self-cleavage was 0.01.

Consider A11C G21U U43G, for which the self-cleavage worked out at 0.01.

As to C10G U20C U28G G30A U34C G36A, the self-cleavage was found to be 0.02.

With A11G A14C U34G C37U, the self-cleavage came out at 0.

In the case of A11G A14U G30U, the self-cleavage is 0.01.

As for C10U G27A C46A, the self-cleavage was 1.14.

As for C10G U20A G30C A39G, the self-cleavage worked out at 0.01.

Turning to A11C C18A G21A G27C, the self-cleavage was determined as 0.02.

A11C C23U G29C G44U: the self-cleavage is 0.02.

On to C10G U20C G21C, for which the self-cleavage amounted to 0.02.

With C10U G33A C37U, the self-cleavage is 0.03.

A11G C15U G27U U32G A41G: the self-cleavage was determined as 0.01.
